In all, about 190,000 compounds went through this assay and about 270 (0.14%) were called active. This list was built around the results that the source calls inconclusive (neither active nor inactive); the mix of calls is not that of the screen.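 The calls were made as follows: active = GTP binding activity at least 20% away from the 100% baseline, either lowered as inhibitor or raised as activator; inconclusive = flagged as likely green fluorescent, judged across all proteins in the well; inactive = the rest.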
Each compound was assayed against GTPase HRas (Homo sapiens) (UniProt P01112) (assay: HRas wt fluorescent GTP binding changes, either direction – biochemical, wildtype, bead-based flow cytometry, multiplex, primary screen (AID 759;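 also: 0% = unlabeled GTP competition control and 100% = no-compound control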)). Details: GST-Ras wt beads, Bodipy-FL-GTP binding, at 10 µM, actives lie on both sides.
UniProt P01112, sequence (P01112 whole entry, looked up): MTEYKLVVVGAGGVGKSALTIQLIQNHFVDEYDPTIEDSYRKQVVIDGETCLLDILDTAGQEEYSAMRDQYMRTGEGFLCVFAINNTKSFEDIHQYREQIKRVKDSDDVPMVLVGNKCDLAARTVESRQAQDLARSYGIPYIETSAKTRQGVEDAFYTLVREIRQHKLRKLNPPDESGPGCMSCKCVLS

GTP binding activity, inactive:
Cc1ccn2c(=O)nc(SCc3cccc(C(F)(F)F)c3)nc2c1 94%
COc1ccc(CN2CCNC(=O)C2CC(=O)N(C)Cc2ccon2)c(OC)c1 (stereo unspecified) 98%
Cc1ccc(N2CCN(S(=O)(=O)N3CCOCC3)CC2)cc1C 98%
CCOc1ccc(NC(=O)CN(C)CC(=O)NC2CCCc3ccccc32)cc1OCC (stereo unspecified) 97%
O=C(O)c1ccccc1CSc1ncccc1C(=O)O 94%
O=C(C#Cc1ccccc1)c1cccc([N+](=O)[O-])c1 87%
Cc1nnc2ccc(-c3cccc(NC(=O)c4ccc(Cl)nc4)c3)nn12 91%

GTP binding activity, inconclusive:
CCC(CC)C1C(C#N)=C(N)Oc2n[nH]c(C)c21 (stereo unspecified) 103%
COc1ccc(/C=N/NC(=O)c2cccnc2)cc1Cn1nc([N+](=O)[O-])c(Br)c1C 68%
CCOc1cccc(/C(O)=C2/C(=O)C(=O)N(CCOC)C2c2ccncc2)c1 (stereo unspecified) 501%
O=C(NCc1ccccc1)c1noc2c1CCCCC2 107%
COc1ccc(OC)c(NC(=O)CCc2c[nH]c3ccccc23)c1 96%
CSC1=NC(=O)/C(=C\c2cccc3ccccc23)S1 90%
Cc1cccc2cc(CN(CC3CCCO3)C(=O)c3ccco3)c3nnnn3c12 (stereo unspecified) 98%
CC(/C=C1\SC(=S)N(NC(=O)c2ccccc2C)C1=O)=C\c1ccccc1 87%
CCn1cnc2sc(-c3ccccc3)cc2c1=O 104%
N#CC1=C(N)C(C#N)(C#N)C(c2cccnc2)C2CCCC=C12 (stereo unspecified) 91%
COc1cccc(-n2nnc3c(=O)n(Cc4ccc(Cl)cc4)cnc32)c1 93%
Clc1cccc(Cl)c1/C=N\Nc1nccs1 16%
C[C@@H]1C[C@H](Nc2ccccc2)c2ccccc2N1C(=O)c1cccnc1 102%
C=CCn1c(SC)nc2sc3c(c2c1=O)CCc1ccccc1-3 103%
CCn1c(SCC(=O)Nc2oc(-c3ccccc3)c(-c3ccccc3)c2C#N)nnc1-c1cc(OC)cc(OC)c1 92%
O=C(CC(NCc1ccccn1)C(=O)O)Nc1ccccc1Cl (stereo unspecified) 95%
CN1CCN(C(=O)/C=C/c2cn(-c3ccccc3)nc2-c2ccc3c(c2)OCCO3)CC1 106%
CN(C)c1ccc(CN(C(=O)COc2ccc(Br)cc2)C2CCS(=O)(=O)C2)cc1 (stereo unspecified) 95%

GTP binding activity, active:
O=C(CCc1ccc(S(=O)(=O)NCCc2ccccc2)cc1)Nc1ccc2c(c1)OCO2 39%
